The RNAGym collection of RNA variant scans (doi:10.7554/elife.90254)
Read counts are not given, so values of variants with three or more changes are uncertain.

B1: LINE1-full (parent)
chain: UACGUAGGUGGUUUUCCCCUGAUAGUGCUAAGGGGGCCUGGAAGUUUGGACUGGGCAGAGCUCAACACAGCGUGGCAAAGUGGCUGUGGCUAGACUGCCUCUCUGGAUUCCUCGUCACUCAGCAGGGCAUCUCUGAGAGAAAUGCC

Variants of: B1
Assay: self-cleavage, relative activity (ratio to wild type); higher = more cleavage; in vitro, sequencing; the parent is a self-cleaving ribozyme
A64U C66G U73A gave a self-cleavage of 0.02.
U9A A69G U132C showed a self-cleavage of 1.08.
U109C U132C A136U showed a self-cleavage of 1.58.
U62C A138U A142U showed a self-cleavage of 0.04.
A43C A57G U143C gave a self-cleavage of 0.95.
Work on A67G C99A A142G yielded a self-cleavage of 0.
Variant U47C A79G U109C A141G has a self-cleavage of 2.36.
A6G U20G U47C showed a self-cleavage of 0.
U1C G49A A57G A67G showed a self-cleavage of 0.99.
Variant A42G A59G U102C A121G has a self-cleavage of 0.
A50G G60A A79G A136G showed a self-cleavage of 0.
Work on U9C A124G U134C yielded a self-cleavage of 0.67.
Variant U45C A57U U134A has a self-cleavage of 0.07.
Variant A65U A79G A138G has a self-cleavage of 0.48.
In the case of U45C A50G G114A, the self-cleavage is reported as 1.58.
U14C U45C U119C A129U showed a self-cleavage of 1.04.
A22G U26A A59G U73A showed a self-cleavage of 0.06.
In the case of U13C U20C U47A, the self-cleavage is reported as 0.82.
Work on U9C G27A U47A A69U yielded a self-cleavage of 0.02.
Work on G8A U47G U73C yielded a self-cleavage of 0.
In the case of U85A G97U A107G, the self-cleavage is reported as 0.04.
In the case of U12G U45C U52A A64G U100C, the self-cleavage is reported as 0.
Work on U23C A30G A121U yielded a self-cleavage of 1.01.
A30U A79G A107G gave a self-cleavage of 1.62.
With U15C U115C G122U the self-cleavage was 1.37.
U13C A124G G125U showed a self-cleavage of 1.73.
In the case of U9G U73C A142G, the self-cleavage is reported as 1.46.
With U20C A69G U109A the self-cleavage was 0.79.
In the case of A65G A79G U134C, the self-cleavage is reported as 0.
U13C U45A U52C C84A showed a self-cleavage of 0.13.
For U12C U20C G54A A78U A129G, the self-cleavage was 1.41.
Variant C19U G34C A138G has a self-cleavage of 1.35.
For U1C C18U U85A, the self-cleavage was 0.02.
In the case of U109C A136U A138G, the self-cleavage is reported as 0.97.
U13A U20A A124G gave a self-cleavage of 0.64.
With U14C U104C U112C G126A the self-cleavage was 1.99.
In the case of U13C C19U U143A, the self-cleavage is reported as 1.04.
Work on U52C U102C A136G yielded a self-cleavage of 1.46.
For G34U G93A U104C, the self-cleavage was 0.01.
In the case of U15C G53A U108A, the self-cleavage is reported as 1.15.
U13C U115A A129G U130C A138G gave a self-cleavage of 0.
For U39C U87C C111U, the self-cleavage was 0.1.
For A42G A59U U134C, the self-cleavage was 0.7.
Variant U29C A43G G88A A138U A142G has a self-cleavage of 0.08.
For U12C G82A A142G, the self-cleavage was 1.75.
With A59U U62C U73C A107G A142G the self-cleavage was 0.
For U23C U112G U119C, the self-cleavage was 1.97.
Work on C71U U112C U143G yielded a self-cleavage of 0.95.
U5C U73C A79G C120U A142G showed a self-cleavage of 0.8.
Variant A2G A30G G33C U46C A77U A79G U112C has a self-cleavage of 0.
For U9A G35A A42U U45G A92G A121C, the self-cleavage was 0.
A57G U104C G122U showed a self-cleavage of 0.7.
A6G U12A A43G U62A U108A C123A U143C showed a self-cleavage of 0.33.
Variant G60A A69G A77G U104G has a self-cleavage of 0.37.
Variant U29A G54A U87A has a self-cleavage of 0.09.
For U12G A69G A136G A142G, the self-cleavage was 1.05.
Variant U46A A67G U81A A121U A140G has a self-cleavage of 0.18.
Variant U13C U45G U102C U108C has a self-cleavage of 1.31.
A42G U130C A138G gave a self-cleavage of 1.12.
For U14A C68U U108C, the self-cleavage was 0.41.
For A94G C131A G139A, the self-cleavage was 0.61.
Variant U1C A64G A67G has a self-cleavage of 0.21.
U9C A117G U134C showed a self-cleavage of 1.25.
For U52A A77U G122A, the self-cleavage was 1.05.
A22G G36C U109A A136G showed a self-cleavage of 1.18.
Work on U13A A107G U132C yielded a self-cleavage of 1.53.
For A57G A78G C113U, the self-cleavage was 0.48.
G4U U13C A57G U96A A107G showed a self-cleavage of 0.
U13C A22G U143C showed a self-cleavage of 2.
Work on U12C A79G G144C yielded a self-cleavage of 1.2.
For U14A U87A A94G, the self-cleavage was 0.04.
U13C A31U A107U U119C A142G showed a self-cleavage of 0.92.
G36U U102A A136U showed a self-cleavage of 1.53.
In the case of A42U U102C A121G, the self-cleavage is reported as 0.
Variant U12C U62A A141G has a self-cleavage of 0.18.
With U14C A22U U52A C133A the self-cleavage was 1.03.
Variant U1A A69U U109C U130C G144A has a self-cleavage of 0.17.
G32A G40A U73C showed a self-cleavage of 1.32.
A42U A57G A59G showed a self-cleavage of 0.16.
Variant U13C A57U A59G has a self-cleavage of 0.18.
U9C A31G A64G U115C A141G showed a self-cleavage of 1.02.
With U52C U62C U104A the self-cleavage was 0.07.
A43U U62C C113A showed a self-cleavage of 0.02.
Work on A24G A31G U47C C84U yielded a self-cleavage of 0.71.
U14C G82A U104A G106U showed a self-cleavage of 1.62.
U14A A43G U119C showed a self-cleavage of 1.12.
Work on U39C U85C U108A U109C yielded a self-cleavage of 0.
With U20C U46G U62C A94U the self-cleavage was 0.09.
With U14C A42G U45A the self-cleavage was 0.
G10A U14C U52C showed a self-cleavage of 1.13.
U26C U47A G72A A124G U143C showed a self-cleavage of 0.51.
For U20C G88A A121U U132C U143C, the self-cleavage was 0.1.
For U87A U115A U119C, the self-cleavage was 0.03.
Variant U14C A22C A57U U112C U119C has a self-cleavage of 1.15.
For U96A A124U A140G, the self-cleavage was 0.08.
A50G U52A U119A gave a self-cleavage of 0.53.
U52A U104C U108C showed a self-cleavage of 1.15.
Work on A65G A78U U112A A129U U132C A140G yielded a self-cleavage of 0.19.
In the case of A43G G72C U81C A138U U143C, the self-cleavage is reported as 0.
In the case of A24G G97A C131A, the self-cleavage is reported as 0.13.
Work on U14C U47G A65U U73C A77U yielded a self-cleavage of 0.
Work on A124G G127A A140G yielded a self-cleavage of 0.55.
Variant A64G G75C A78G U91A has a self-cleavage of 0.
Work on U12G U52A A92G A140G yielded a self-cleavage of 0.16.
U1C U52A A59G gave a self-cleavage of 0.2.
Work on U1C C28A U47C A57U A77C U119C yielded a self-cleavage of 0.
Work on A78G A129U U132C A136G yielded a self-cleavage of 1.27.
With C56A U104C U134C the self-cleavage was 0.
In the case of U15C U45C G58U G74U U104A U109C, the self-cleavage is reported as 0.01.
With G33A U87A U134C the self-cleavage was 0.05.
U5A A57G A129U gave a self-cleavage of 0.7.
A64G G93C U102C A117G G126A showed a self-cleavage of 0.
In the case of U13C U85C A92G U130C, the self-cleavage is reported as 0.
U45C U46C A57U G72A U115C gave a self-cleavage of 0.24.
In the case of U45C U85A A94U A141G, the self-cleavage is reported as 0.09.
Work on U47C A64U A138G yielded a self-cleavage of 0.76.
For U52C A64G U102C, the self-cleavage was 0.23.
For G27A U47G U62C U104A, the self-cleavage was 0.04.
Variant A24U U115C U134G has a self-cleavage of 2.16.
For U12C U46C A140G, the self-cleavage was 0.35.
For U39C G41A C111U A117G G122A, the self-cleavage was 1.62.
U96C A121G A129U A142G gave a self-cleavage of 0.11.
For A24G U26C A69G, the self-cleavage was 0.
U45C A69G G80U U115C U134G gave a self-cleavage of 0.92.
Work on U1C U14C A129U yielded a self-cleavage of 0.72.
For U1A G8A A77U, the self-cleavage was 0.69.
For U46G U100C U132C A142G, the self-cleavage was 0.38.
U13C U23C A57U A117G C131U A136G showed a self-cleavage of 0.24.
G11A G97A U104A A121G gave a self-cleavage of 0.11.
With A50U U62C A67G A92U the self-cleavage was 0.
U26C G40A A79G U87A U132C showed a self-cleavage of 0.07.
U26C U45A G80A showed a self-cleavage of 1.39.
A31C A57U A107G gave a self-cleavage of 0.49.
Work on U62A A79U A141G yielded a self-cleavage of 0.03.
With A42U A92G A141G the self-cleavage was 0.03.
For U47C A64U A79G U130C, the self-cleavage was 0.33.
For U46C A65G A138G, the self-cleavage was 0.
Variant U1G U104A A107G A141G has a self-cleavage of 1.21.
U29A G53A U85C U132C gave a self-cleavage of 0.12.
With A43G U109A A124G A140U the self-cleavage was 0.25.
With U112C U115C U134A the self-cleavage was 0.81.
U39C U81A A94G U96A showed a self-cleavage of 0.13.
For U1C A57U A64G C84A, the self-cleavage was 0.15.
Work on C38U U46G A65G yielded a self-cleavage of 0.2.
U47C C128U A140G showed a self-cleavage of 1.3.
Variant U15C U47C G75C U96C has a self-cleavage of 0.
A6U U87A A107G A117U gave a self-cleavage of 0.12.
In the case of U13A C19U G32C U47C G93A C95U A136G A142G, the self-cleavage is reported as 0.06.
Work on U52A A67G C71U U112C yielded a self-cleavage of 0.06.
Work on A24U A50U U108C yielded a self-cleavage of 1.53.
Work on U14C A24G G48A A65G A94U A117G A136G yielded a self-cleavage of 0.
C51U U115C A117U showed a self-cleavage of 1.3.
Variant G7C U52A A77U A94G has a self-cleavage of 0.44.
U9C A64G A94U showed a self-cleavage of 0.29.
For A22U U29C A107G, the self-cleavage was 1.62.
In the case of C19U G40U U115C, the self-cleavage is reported as 0.
Work on U20A A43G U112A U115C yielded a self-cleavage of 1.1.
U13C U23C U62C C63U A94G gave a self-cleavage of 0.18.
With U14C G36A U100A G114C the self-cleavage was 0.44.
A57G A59G U115C A117U showed a self-cleavage of 0.16.
Work on A6U A22G U26C U47C G89A A138G yielded a self-cleavage of 0.28.
For U9C A22U A138G, the self-cleavage was 1.41.
In the case of A57U U73A U102A U132C A138U, the self-cleavage is reported as 0.
A30G A124U C145U showed a self-cleavage of 0.93.
With U20C U132C U143A the self-cleavage was 1.02.
Variant A6U U13C U39A A79G C131U has a self-cleavage of 0.66.
With U23C A57G A107G U112C the self-cleavage was 2.3.
